We go through 6 molecules from PMC12136788.

B1: chr3:9412954:9412955:+_ENSG00000134077_ENST00000452837|hu_mus|hu_hu_hu_mus_False|1_1 (ssRNA)
RNA: GGGAGUUCUACAGUCCGACGAUCGGUUGAUAUCUCUUCUUUGAUGGCUGGAUUUUCAUAAUAGUCCAAGAUAUGUGAAUCUGAAGUGCUGCUGGCAUGCUUUUUCUUACCAUCUUUCUCAUCUGCUUUGUCUCCUUGUCCAUUCAACAGAGGAUUGAGCAUCA
B2: chr3:95749504:95749505:+_ENSMUSG00000015749_ENSMUST00000165307|mus_mus|FALSE|FALSE (ssRNA)
RNA: GGGAGUUCUACAGUCCGACGAUCAGUGUAAUUGGUUAAUUUAUAAAUAACUUUAAAACACUAUGAAUGAAAUGCACCAAACUACACCUGUGUAAAAGCAACAAUGUUUUAAUUAUGGGCUAAAAAUGUCUAAUACAUUAAGCACAACAGAGGAUUGAGCAUCA
B3: chr4:140556289:140556290:+_ENSMUSG00000036622_ENSMUST00000037055|mus_mus|mus_mus_mus_hu_False|38_38 (ssRNA)
RNA: GGGAGUUCUACAGUCCGACGAUCGAUGGAGCUCACCAGGCCCCCUUUUGCCGUGCAGAACCCUGUGCGGGUCACCACUGCCAGGACGUGCGGUCCCACGUAGGCUCGGGCCUGCAAGAUGAGGGUCCCGCAGAAGAGUGUGUGCAACAGAGGAUUGAGCAUCA
B4: 26416299_26417017_938_CDS_ENSMUSG00000024188_ENSMUST00000114976|mouse|control|control (ssRNA)
RNA: GGGAGUUCUACAGUCCGACGAUCGGAACGGCUGCGAUGGCGCCUGUAUCUAUCUCGGGAUCUGGAACGGGAAAACUUCCGCCGCUCUCUGGAGGUAGACCUAGACCGCCUCCGUCGACGAUCCCGGGAGCGUGACCUUCUGCGCAACAGAGGAUUGAGCAUCA
B5: chr11:46405157:46405158:+_ENSG00000110492_ENST00000395566|hu_hu|hu_hu_hu_mus_False|28_28 (ssRNA)
RNA: GGGAGUUCUACAGUCCGACGAUCCCCUCCCCACUUUGGGCACUUGGUGUGGGCGUGAGAGGACAGGCGUGAUUGACAGAGCUGACAGGAAGACAAAAGGCACUGGUGGGUCACAUCUUGGGCCUGUGGGAGAGGAGGGCUCCGCAACAGAGGAUUGAGCAUCA
B6: 60767377_60767590_4158_CDS_ENSG00000011028_ENST00000303375|human|control|control (ssRNA)
RNA: GGGAGUUCUACAGUCCGACGAUCGGGAAUCCACGCGGAGUCUGCCAGUCCCUGGGGACAGCUGCCAUGGUAGCUUAUUCUUCGGGGAGGAGGGGGCCCACUGCUAACCCCACACACAGCCCCCUGCAGCUUGGUGUCACAGCUCAACAGAGGAUUGAGCAUCA

This is one part of the list.

This experiment deals with T1, UNK ZnF1-3 (human, UniProt Q9C0B0 31-174).
T1 sequence: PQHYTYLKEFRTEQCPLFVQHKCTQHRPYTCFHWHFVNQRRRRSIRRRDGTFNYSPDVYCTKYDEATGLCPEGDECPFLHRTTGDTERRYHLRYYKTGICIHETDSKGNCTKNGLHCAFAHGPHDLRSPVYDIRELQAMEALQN
Description: nsRBNS (natural sequence RNA bind-n-seq); RBNS binding buffer (assumed for nsRBNS): 25 mM Tris pH 7.5, 150 mM KCl, 3 mM MgCl2, 0.01% Triton X-100, 500 ug/ml BSA, 20 U/ml SUPERase-In, 4 C; UNK is unkempt and MSI1 is Musashi-1; names of the RNAs are library labels; protein concentration not given here; high values mean tight binding.
As for B1, the binding signal is 0.377 enrichment R. As to B2, the binding signal was 1.2 enrichment R. To B3 belongs 0.882 enrichment R; to B4, 0.506 enrichment R; to B5, 2.49 enrichment R. The result for B6 reads 0.794 enrichment R.
